Experimental data taken from PubChem BioAssay AID1346428 (National Center for Advancing Translational Sciences (NCATS), 2018).
The whole screen tested about 48,000 compounds, of which about 1,200 (2.5%) were called active. Another 2% or so got no clear call; they are omitted.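 The calls were made as follows: active = activation of at least 60% and not above a set upper limit (about 1 call in 100 departs from these limits); inconclusive = activation of 40% to 60%, or above that upper limit; inactive = activation under 40%.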 Some of the results follow.

biological target: Probable G-protein coupled receptor 32 (Homo sapiens) (UniProt O75388); experiment: qHTS for Agonists of Human Resolvin D1 Receptor DRV1; conditions: CHO-K1 GPR32 beta-arrestin PathHunter luminescence, 90 min; at 76.9 µM; hits give high values; zero percent set by DMSO-only wells; also: 0% is about no effect
How it was run: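 Step 1: seed CHO-K1 GPR32 beta-arrestin cells, 2,500/well, overnight at 37 °C. Step 2: add compounds, 90 min at 37 °C. Step 3: detection reagent, 1 h ambient, then luminescence.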

Chain of UniProt O75388 (O75388 whole entry, looked up): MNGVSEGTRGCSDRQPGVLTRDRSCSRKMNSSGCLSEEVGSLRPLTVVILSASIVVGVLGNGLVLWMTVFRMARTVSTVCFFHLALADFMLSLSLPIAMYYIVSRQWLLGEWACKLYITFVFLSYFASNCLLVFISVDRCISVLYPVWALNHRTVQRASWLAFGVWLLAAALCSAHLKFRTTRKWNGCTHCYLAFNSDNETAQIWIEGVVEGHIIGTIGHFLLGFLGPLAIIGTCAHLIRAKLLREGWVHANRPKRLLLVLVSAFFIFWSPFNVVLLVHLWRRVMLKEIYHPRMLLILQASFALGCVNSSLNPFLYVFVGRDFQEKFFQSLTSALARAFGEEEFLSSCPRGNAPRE

activation, active:
O=C(CC(c1ccccc1)c1cc(Br)ccc1O)NCC1(c2ccccc2)CCCC1 (stereo not drawn) 108%

activation, inactive:
CCCCCn1c(=O)[nH]c2cc(C(=O)Nc3ccc(F)cc3)ccc2c1=O 3.88%
CC1CCN(CCNC(=O)c2ccc(Cn3c(SCc4ccccc4)nc4cccnc43)cc2)CC1 -16.4%
CCN(c1ccc(Cl)cc1)S(=O)(=O)c1nnc(NC(=O)C(C)C)s1 -8.83%
CCC(=O)Oc1ccc(-c2nc3ccccc3c(=O)o2)cc1 38.8%
O=C1C(c2[nH]c3ccccc3c2O)=Nc2ccccc21 -35%
CN1CCC(Nc2ncc3ncnc(Nc4ccc(F)c(Cl)c4)c3n2)CC1 24.1%
CCOC(=O)c1ccccc1NC(=O)Cn1c(=O)n(Cc2ccccc2)c(=O)c2c(C)c(C)sc21 -1.27%
CC(C)(C)OC(=O)N1CCC(c2c(C(=O)NCc3ccco3)cnn2-c2ccc(F)cc2)CC1 -3.53%
Cc1ccc(-n2ncc(C(=O)N3CCN(Cc4ccccc4)CC3)c2C2CCN(C(=O)OC(C)(C)C)CC2)c(C)c1 -6.55%
CCCCCCCCCC[Si](C)(C)CCC(=O)NC(Cc1ccc(C)cc1)c1ccccc1 (stereo not drawn) 4.48%
Cc1ccc(C)c(S(=O)(=O)c2nnn3c2nc(NCc2ccc4c(c2)OCO4)c2sccc23)c1 -8.37%
CN(C)c1ccc(NC(=O)Cn2c(SCc3ccccc3F)nc3cccnc32)cc1 27.5%
O=c1c2sc3ccccc3c2n(Cc2ccccc2F)c(=O)n1CCc1ccccc1 -2.03%
CN(C)c1ccc(C(CNS(=O)(=O)c2ccc(Br)cc2)N2CCOCC2)cc1 (stereo not drawn) -28.2%
COc1ccc(-c2nnc(SCC(=O)Nc3ccc(F)cc3)s2)cc1 9%
CCc1ccc(-c2ccc(C(=O)Oc3ccc(Br)cc3)cc2)nc1 12.3%
O=C(c1ccc2c(Cl)c3c(nc2c1)CCCC3)N1CCN(c2cccc(Cl)c2)CC1 -11.1%
Cc1cccc(N2C(=O)CCSC23C(=O)N(Cc2ccc(F)cc2)c2ccccc23)c1 (stereo not drawn) -28.7%
Cc1ccc(-c2c(C(=O)NCCc3ccc(Cl)cc3)oc(=O)c3ccccc23)cc1 -6.26%
Cc1c(C)n(C)c2ccc(C(=O)NCCCN3CCCCC3)cc12 -12.5%
COc1ccc(NC(=O)C2=C(C)Nc3nc(SCc4ccccc4)nn3C2c2cc(OC)ccc2OC)cc1 (stereo not drawn) 3.49%
Cc1ccc(Cn2ccc(NC(=O)c3cc(-c4ccc(Cl)c(Cl)c4)on3)n2)cc1 -2.1%
COCCc1nn2c(=O)cc(COC(=O)c3ccc(C(C)(C)C)cc3)nc2s1 8.05%
Cc1nnc(SCC(=O)NCc2ccccc2F)c2nn(-c3ccc(Cl)cc3)c(C)c12 -8.36%
Cc1ccc(-c2nc(SCc3ccc(Br)cc3)n3[nH]c(=O)cc3n2)cc1 0.837%
Cc1ccc(S(=O)(=O)c2nc(-c3ccc(Cl)cc3)oc2N2CCCCCC2)cc1 -32.5%
CCN(CC)S(=O)(=O)c1ccc(C(=O)N=c2sc3cccc(OC)c3n2C)cc1 8.08%
COc1ccc(CNc2ncnc3c2c(-c2ccccc2)cn3-c2ccccc2)cc1 -11.6%
CCOC(=O)c1ccc(NC(=O)Cc2ccc(-n3c(CC)nc4cccnc43)cc2)cc1 -9.4%
COc1ccc(CNC(=O)CCCc2cn(C)c3ccccc23)c(OC)c1 -21.4%
Oc1ccc(Cl)cc1Nc1nc2ccccc2n2cnnc12 -6.62%
COc1ccccc1N(Cc1cc2cccc(C)c2[nH]c1=O)C(=O)c1cccc(Cl)c1 1.41%
COc1ccc(NC(=O)Cn2nnc(C(=O)NCc3ccccc3Cl)c2N)cc1Cl 10.6%
COc1ccc(CCn2c3c(c(=O)[nH]c2=O)C(NC(=O)c2ccccc2)(C(F)(F)F)C(=O)N3)cc1OC (stereo not drawn) 3.33%
O=C(CCS(=O)(=O)c1ccc2c(c1)NC(=O)CO2)Nc1cccc(C(F)(F)F)c1 13.3%
CCNC(=O)CC1C(=O)N(c2ccc(C)cc2)C(=O)N1Cc1ccc(C)cc1 (stereo not drawn) 8.52%
NC(=O)c1cc(S(=O)(=O)N2CCCCC2)cs1 -6.31%
CCn1cc(S(=O)(=O)c2cc(C)cc(C)c2)c(=O)c2cc(F)c(N3CCC(C)CC3)cc21 -13%
Cc1ccc2nc(-c3ccc(C)c(NC(=O)CSc4ccc(Cl)cc4)c3)oc2c1 0.42%
COCc1nc2c([nH]1)c(=O)n(C)c(=O)n2CC(C)C -0.149%
CCOc1ccc(N(C(=O)c2ccc(C)cc2)S(=O)(=O)c2ccc3c(c2)n(C)c(=O)n3C)cc1 -1.56%
Cc1ccc(Cl)cc1N1CCN(C(=O)Cn2cnc3nc4c(cc3c2=O)CCCC4)CC1 -4.2%
Cc1ccc(C)n1-c1nnc(N2CCCC(C(=O)NCc3ccc(F)cc3)C2)s1 (stereo not drawn) 15.4%
O=C(NCc1ccc(Cl)cc1)c1cc2ccccc2o1 -14.5%
Cc1ccc2cccc(NC(=O)c3ccc(-c4cc(Cl)ccc4Cl)o3)c2n1 -5.14%
O=C(NCc1cccc(Br)c1)c1cccn1-c1nnc(N2CCCCC2)s1 1.25%
CCN(CC)C(=O)Cn1c(=O)n(CCCCCC(=O)NCc2ccccc2Cl)c(=O)c2sccc21 -11.5%
COc1ccc(OC)c(NC(=O)c2ccc3c(c2)c(C)c(C)n3Cc2ccc(F)cc2)c1 -17.1%
Cc1ccc(CCNc2nc3c(S(=O)(=O)c4ccc(C)cc4)nnn3c3ccsc23)cc1 -12%
CC(C)c1ccc(NC(=O)c2ccc(NC(=O)CCS(=O)(=O)c3cccs3)cc2)cc1 8.5%
Cc1ccc(-n2ncc3c(NCCCc4ccccc4)ncnc32)cc1C -4.22%
COc1cc(CNC(=O)c2cc3n(n2)CCCN(Cc2ccc(C)cc2)C3=O)cc(OC)c1OC -4.82%
